Assay results published in the supplement of paper PMC12632987.
The full ranking holds about 4,500 sequences; the median of “median log2 fold change of GCK-ALFA target abundance (FLAG IP / Myc IP barcode read proportion)” is about 0.078, and the lowest 2% start at about -0.6. The list shows a part of the results.

B1: GBRAP_52_6027 (protein)
chain: MREEIRAVVEEALALVKAGDEAAAAALLEALVASLNEEEVRLLTEVLAELARRARPEDHEAVWRLTELAAAAMEKAGKDEVLADDLEARVAAALYEAELR
B2: GBRAP_184_5084 (protein)
chain: KVFEAEVEAETEEELFAKVDAVLDEAAKQKADLVVLVKAKGLDTETAIAIINKLGAAKKAGKVPNVTVGFDEEFTEEEIDKIVAAADAAGVKVVLPIKDE
B3: GBRAP_14_3776 (protein)
chain: MDKAIAIIKETAAEIVALLAEINPAKAAAFKAAVDAVTAATIAEIKATGDAIAAAEAGQAALVAAVRAILADEAPEVRARAEAVVRVEWGQAILELDELE
B4: GBRAP_184_5052 (protein)
chain: MTYERVIEAKNKEELKKKLEELKEEVKDHKGNLIVTVKIPKFTKEMIEILMEKMKEIKDEGYAKSITVGLDGDMSEEEVDLALELADKAGVKVVLALDEE
B5: GBRAP_52_6300 (protein)
chain: MREEAERLAERLIELAKAGRLDEARALLREIVATKSKEFLRLLAEVLAERAREADEETQDVIFEVMEMLADELLEGGYDEAFAGDLLALVARAMYEAELK
B6: GBRAP_52_5975 (protein)
chain: MREEMRRLAEEAVALMLAGDREGARALLEEIAETKTEEEITLFMEELAELAKTATPEERDAIVEVALLAEDIWLEAGFDEALADSNVARVAAAAYAAEQA
B7: GBRAP_160_4006 (protein)
chain: SEEAEKLIKEIKEIFEELKKDIEGLTPEERLTLAKGYAGEILQLAESSKVISDEAVDKIAEILDEFLEELEKNKNAPLEYWKKLIEETLKKIEEVIKEDS
B8: GBRAP_43_5757 (protein)
chain: SKELVEGALDFALLVAEDPNVSEETKVKAIIAALRLAADEGYLDKELLKKVIEAAAKNLSAESLKKIREEAERLAKEHPELAEKFKEAAELLEKAIKEKE
B9: GBRAP_139_3704 (protein)
chain: SALDEVLATARALTENMATDKEASLAAIVALIASLDEETAEAALRAIGEVLATFPLDEAEAYADELLERIEAEIDNEDKVDIAEAVLNGALARKAAAEEA
B10: GBRAP_139_3718 (protein)
chain: SAAEEKIEKAKEIVEKYKDDLEKLAKELAKLISEVDGETALEIVRAAAEELKDWSWEEWEEFIELLEKELKELGFDEDDVLAIKGEFEAVMAKHLMAKEA
B11: GBRAP_184_5143 (protein)
chain: TVLRVFIEAETVEEALEKAEKAFKEAKAKGAKLNLFIELKDATVEEVEELARRIRELVEEYGLTDANVTLVVEADEEEADEFIDVADRHGIRLVVALEEE
B12: GBRAP_78_6679 (protein)
chain: EVEEELEKAIEELNKAASLLSKLKTEEALDILGEVIDAAATAEEAYFGEADLKELEEALEKVKKALERVKKIDTPEAKEVAKELEEAAKHLEKAIKLLKE
B13: GBRAP_172_5002 (protein)
chain: GVTLVELDLRGLSREEAVARARAAVEAAAAAHDADLVVAIAADTQETVDAVTAAVRETAAALGRRVTVVADAVTTEAGIARIRAAARAEAIDLAYEQEEE
B14: GBRAP_74_6562 (protein)
chain: SEEMIKKIKEVAKTKSLKEFSEFILENIDELDEEALLVAFKELLAKLEEEKDSVTPEELEIVSEAAAALADKAFTSEASEETLKAAAALLTAVVELEKKA
B15: GBRAP_78_6736 (protein)
chain: EIEELIDKALEELNRAARLAQQFPLEEQTELLDLIIDASTLLEEAEEEGFDLKLLEEALKKLKEALKLAKKLKTPLAEKLAKELEEAIKLVEKAIKLVKE
B16: GBRAP_9_7132 (protein)
chain: REELVEKMAEVVLDMIEDIAEAVPEVSEELKEKFKERVKKLKEELLKDKSATKEEIKERFIKLVEEIKEEVKKIVSPELAKIVDAIALTAIEEIEEIAEE
B17: GBRAP_9_7166 (protein)
chain: SKEKKEKILKIVKDALKEIIELVPEEVKPLAEKLAKEALKKLEKAVKDENTTVEEFAKKAKEELKEVAEELKKKVDPETAKQIEAVVLTAEEEIEEIVEE
B18: GBRAP_160_4343 (protein)
chain: SEEKEKLLKFVDEEFEETKELIEGESIEQRKILISGMFGEILMELSESPIISDELEDEVKEIEDELLDYLDENPDLSEEEIKELIEEAREKVKEAIEKYT
B19: GBRAP_96_7096 (protein)
chain: MLEEAEALVRELIAALDTDPERARALAERLLEFPVEVVTEAIVRVVKDPADAAKLAELLLELGDEKAEEVLLEAAEKAPGDISKAIIDAMQAYEEAKEAA
B20: GBRAP_9_7126 (protein)
chain: KKELIEKLKEVVLDMIEEISEVVPELTEEQKEEFKEKVEELEEYALEDESLTPEEIKELFLELIEEIEEDVKEIVDEELKKLVEAIALTAEEEIEEIVEE
B21: GBRAP_14_3790 (protein)
chain: MEEIKKILEEAIKEILELIADLPPDKREALRKALEAIAEKTLETIKKTGDLDAALDAMLAEAVAATEAILADLPPETRAEAVAIVRTELSNAEVEIDEAA
B22: GBRAP_45_5808 (protein)
chain: SAEHEAALAAALAALERAIAELERLAEEDPERWAPLLARTRALLARLREHRDDAEALEALAREVDELLKEALADPAATGELLDALLEAGNHIREAAELLK
B23: GBRAP_95_7037 (protein)
chain: DDDRLALESAIEVAITLADLGQAEGAARAALEARALLEEGGVIPIDAELAAELIRVIEEVLVDVLPAADVAALLEAIRAAAEDPEVRARADAALAAVRAR
B24: GBRAP_11_2765 (protein)
chain: MKEKKKEIAEKAKELAELLQKILKEGVDDEELLKKAEEQLKELTELVEKYGDEAQKKLAEILKEELEEAKKDPKNREQYLQNAKTTADVLEGDFLLEAEE
B25: GBRAP_83_6890 (protein)
chain: AEEITVGAAADHVAEAVEAAIDLATEEGYDVTLDVEVTPESVPALEAGLDRAAAAGVKVDLEVTVVAATEAEAEATAARIRAHAEASGAASSVEVTTEVR
B26: GBRAP_52_5884 (protein)
chain: SLEEAIELLKKMIKAVAEGKKEEAEKIAKEIVEKFDDETIIEAVEILAKEIKEKSLEEAEAFYEAMELLSKVLIEMGGDENIASYIEAIAGAALYEVEQK
B27: GBRAP_160_4205 (protein)
chain: SEKIEEIIKSLREETEEVIAALDEVSVEEAAVFADVEYGEVLMEAVELGEENEEIEDIIAKAADEVVAYLKAAADAPVEELKARIREITEKAIEEIKKAG
B28: GBRAP_125_3141 (protein)
chain: MKEALIELAEALAEALGFSEEEIAEIRRLAEASDPAQMIVAILLAAGFEELAELAEKVLPKLTEEEIEELTELAKSMKDKSKEELEKALLEKLKELEKKL
B29: GBRAP_128_3483 (protein)
chain: SVEEAVEKVKELMEKIKESSLEEVEEISREIVELLGSLNDEEAEAAAEVIKEMLPELSAEKLEIIADVLRENRGKLDPYKANLANDIAVEALNEALEKEE

target: GABARAP, O95166; experiment: median log2 fold change of GCK-ALFA target abundance (FLAG IP / Myc IP barcode read proportion) (log2 ratio); each designed protein is fused to an ALFA-tag nanobody in HEK293 cells to bring the named protein to FLAG-tagged glucokinase (GCK); Myc marks an untargeted standard; higher = target protein stabilised (more abundant); details: target protein: 3xFLAG-MCP-GCK-ALFA reporter; HEK293 landing pad (RPLP)
Sequence (O95166 whole entry, the tested form may be a part): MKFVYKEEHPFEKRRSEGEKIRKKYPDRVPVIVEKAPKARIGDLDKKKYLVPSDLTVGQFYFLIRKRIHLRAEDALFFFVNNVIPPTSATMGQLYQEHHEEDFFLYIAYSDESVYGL
In short: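 An ALFA-nanobody-fused binder library was recombined into HEK293 landing-pad cells and induced with 2 μg mL^−1 doxycycline. Cells were transfected with a plasmid expressing a FLAG-tagged target and a Myc-tagged standard. After 48 h, lysates underwent anti-FLAG and anti-Myc immunoprecipitation, and circular RNA barcodes were reverse transcribed, amplified and sequenced. Target abundance is the per-binder median log2 ratio of FLAG to Myc barcode read proportions. Barcodes needed ≥10^−7 proportion in both replicates, binders ≥3 barcodes per replicate, and a 10^−6 pseudocount was added; the two replicates were pooled.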

Row | Binder | median log2 fold change
1 | B1 | 0.0078
2 | B2 | -0.0753
3 | B3 | 0.0676
4 | B4 | 0.22
5 | B5 | -0.146
6 | B6 | 0.107
7 | B7 | -0.00151
8 | B8 | 0.404
9 | B9 | 0.0396
10 | B10 | 0.0839
11 | B11 | 0.129
12 | B12 | 0.3
13 | B13 | 0.155
14 | B14 | 0.0424
15 | B15 | -0.0442
16 | B16 | -0.0475
17 | B17 | 0.398
18 | B18 | 0.0937
19 | B19 | 0.123
20 | B20 | -0.561
21 | B21 | 0.2
22 | B22 | 0.273
23 | B23 | 0.0452
24 | B24 | 0.205
25 | B25 | 0.0697
26 | B26 | -0.0634
27 | B27 | -0.283
28 | B28 | 0.154
29 | B29 | 0.173
